Results from paper PMC4336329 (PLoS ONE, 2015).
Hit rate of the full screen: of about 310,000 compounds, about 14,000 (4.5%) showed an effect of 50% or more. The effect is printed as a negative number. The list shows a part of the results.

Each molecule was assayed against human ether-à-go-go-related gene (hERG) potassium channel (human, UniProt Q12809) (assay: primary screen, population patch clamp on CHO cells stably expressing hERG).
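Further: peak tail current of the secondary pulse compared with the same well before compound.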

Sequence of human ether-à-go-go-related gene (hERG) potassium channel (Q12809 whole entry, looked up): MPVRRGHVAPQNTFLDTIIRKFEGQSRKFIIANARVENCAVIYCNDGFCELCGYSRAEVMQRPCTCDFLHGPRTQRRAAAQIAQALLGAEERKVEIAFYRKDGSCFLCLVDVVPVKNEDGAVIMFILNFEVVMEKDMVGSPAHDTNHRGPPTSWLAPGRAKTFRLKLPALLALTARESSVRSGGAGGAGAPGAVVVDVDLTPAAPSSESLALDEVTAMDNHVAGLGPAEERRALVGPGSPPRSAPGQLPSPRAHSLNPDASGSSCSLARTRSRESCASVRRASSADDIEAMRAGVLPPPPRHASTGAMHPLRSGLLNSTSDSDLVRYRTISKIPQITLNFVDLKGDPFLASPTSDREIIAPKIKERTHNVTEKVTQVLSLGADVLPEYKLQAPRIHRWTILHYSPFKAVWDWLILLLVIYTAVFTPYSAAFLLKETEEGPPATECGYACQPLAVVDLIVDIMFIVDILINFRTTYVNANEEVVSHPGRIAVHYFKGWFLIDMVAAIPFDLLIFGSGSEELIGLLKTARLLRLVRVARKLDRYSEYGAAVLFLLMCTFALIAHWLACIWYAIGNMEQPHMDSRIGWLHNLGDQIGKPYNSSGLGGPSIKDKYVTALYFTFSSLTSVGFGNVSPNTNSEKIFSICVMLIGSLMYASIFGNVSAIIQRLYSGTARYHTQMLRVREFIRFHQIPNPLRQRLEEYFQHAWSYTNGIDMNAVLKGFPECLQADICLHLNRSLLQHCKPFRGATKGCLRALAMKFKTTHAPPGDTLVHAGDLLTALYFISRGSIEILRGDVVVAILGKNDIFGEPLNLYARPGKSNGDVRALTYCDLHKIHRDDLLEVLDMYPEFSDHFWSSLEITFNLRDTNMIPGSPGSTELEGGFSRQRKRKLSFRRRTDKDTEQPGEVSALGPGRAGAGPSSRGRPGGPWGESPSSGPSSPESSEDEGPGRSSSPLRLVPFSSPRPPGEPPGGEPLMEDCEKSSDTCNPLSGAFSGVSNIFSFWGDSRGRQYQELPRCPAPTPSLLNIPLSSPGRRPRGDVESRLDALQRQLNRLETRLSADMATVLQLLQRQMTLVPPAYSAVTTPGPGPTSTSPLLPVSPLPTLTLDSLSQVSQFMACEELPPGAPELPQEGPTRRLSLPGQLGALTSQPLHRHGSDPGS

Row | Structure (SMILES) | hERG current change (%, negative = inhibition) at 10uM
1 | COc1cccc(C(=O)N(C)CC2CCN(CCc3cccc(C(F)(F)F)c3)CC2)c1 | -70.8%
2 | CCC1C(=O)NCCN1C(=O)c1cccc(OC2CCN(S(=O)(=O)N(C)C)CC2)c1 (centres unmarked) | 14%
3 | O=c1cnn(Cc2ccc(Cl)c(Cl)c2)c2ccccc12 | -15.2%
4 | COc1ccc(CO/N=C/c2c(C)[nH]c(=O)[nH]c2=O)cc1 | 1.47%
5 | COc1cc2ccccc2cc1C(=O)NC(=S)Nc1ccc(C(=O)O)cc1 | 7.46%
6 | CNC(=O)CC(C(=O)O)c1ccc(OCC(C)C)cc1 (centres unmarked) | 8.21%
7 | Cc1cc(-c2ccccc2)nc(=O)[nH]1 | 10.2%
8 | Cn1cnnc1SC1c2cccc3cccc(c23)C1NS(=O)(=O)c1ccc(Cl)cc1 (centres unmarked) | 4.47%
9 | NC(=O)c1ccc(C(F)(F)F)n(Cc2cccc(Cl)c2)c1=O | -2.74%
10 | CCc1nnc(NC(=O)c2ccc(COc3ccc(C)cc3)o2)s1 | 1.37%
11 | CC(C)(C)c1cc[n+](-c2nc([O-])sc2C=O)cc1 | 22.2%
12 | Cc1cc(C)nc(N(C#N)CCOc2ccccc2)n1 | 7.15%
13 | Cl.c1ccc(-c2nnc(CN3CCN(C(c4ccccc4)c4ccccc4)CC3)o2)cc1 | -3.69%
14 | CC1=C(C(=O)Nc2ccc(C(=O)N3CCN(c4ccccc4F)CC3)cc2)SCCO1 | -11.3%
15 | COc1cccc(NC(=O)CN2CCN(CC(=O)Nc3ccccc3Cl)CC2)c1 | -61%
16 | CC1=NOC(=O)/C1=C/c1ccc(O)c(Br)c1 | 32.4%
17 | COc1cc(C(=O)NC2CCN(Cc3nnnn3Cc3ccc(F)cc3)CC2)cc(OC)c1OC | -0.888%
18 | COc1ccc(N=c2oc3cc(O)ccc3cc2C(=O)NCC2CCCO2)cc1 (centres unmarked) | 10.8%
19 | COc1cc(CN2CCN(Cc3ccc(C)cc3)C(CCO)C2)cc(OC)c1O (centres unmarked) | -51.6%
20 | COc1ccccc1/C=N\N=C(\N)c1ccccn1 | 15.2%
21 | CC(C)C(=O)Nc1ccc(NC(=S)NC(=O)c2cc3ccccc3o2)cc1 | 13.3%
22 | CCCCCN(C(=O)COC(=O)COc1c(C)cc(C)cc1C)c1c(N)n(CCCC)c(=O)[nH]c1=O | -14.4%

Row | Structure (SMILES) | hERG current change (%, negative = inhibition) at 10uM
23 | Cc1ccc[n+](C(C)C(=O)Nc2ccc(C)c(C)c2)c1.[Br-] (centres unmarked) | 6.63%
24 | CCOc1ccc2c(c1)S/C(=C\c1cccs1)C(=O)N2 | 10.5%
25 | COc1ccc(C(=O)N2CCN(Cc3ccc4c(c3)OCO4)CC2)cc1[N+](=O)[O-] | -44.6%
26 | O=C(Cn1nc(Cl)nc1Cl)c1cc2ccccc2oc1=O | -16.5%
27 | Cc1ccccc1CN1CCNC(=O)C1CC(=O)N(C)CCC1CCOCC1 (centres unmarked) | 18.2%
28 | COc1ccc(CNc2c(C(=O)O)cnc3c2cnn3C)cc1 | 27.1%
29 | COc1ccc(C(c2nnnn2CC2CCCO2)N2CCN(c3cccc(C)c3C)CC2)cc1.Cl (centres unmarked) | 4.59%
30 | CCOc1cc(NC(=S)NCC2CCCO2)c(OCC)cc1NC(=O)c1ccccc1 (centres unmarked) | -10.2%
31 | c1nc(N2CCC3(CC2)OCCO3)c2[nH]cnc2n1 | 20.8%
32 | COc1ccc(N2CCN(S(=O)(=O)CCNC(=O)COc3cccc(OC)c3)CC2)cc1 | 4.17%
33 | O=C(OCCN1C(=O)c2cccc3c(N4CCOCC4)ccc(c23)C1=O)c1cccc(Cl)c1 | 1.19%
34 | O=C(NCCc1ccc(F)cc1)c1ccc([N+](=O)[O-])cc1 | -29.6%
35 | CCOC(=O)c1ccc(NC2c3ncccc3C(=O)N2Cc2ccc(F)cc2)cc1 (centres unmarked) | -1.36%
36 | O=C(NCc1ccc2c(c1)OCO2)C1CC(=O)N(c2ccc(Cl)cc2)C1 (centres unmarked) | -36.1%
37 | Cc1ccccc1-c1nc(CN2CCC(C(=O)NCc3ccco3)CC2)c(C)o1 | -73.6%
38 | Cc1c(C(=O)N/N=C/c2ccc(N(C)C)cc2)[nH]c2ccc(Cl)cc12 | 2.69%
39 | O=C(c1ccc2c(c1)OCO2)N(Cc1ccco1)C1(C(=O)NC2CCCCC2)CCCCC1 | -20.2%
40 | COc1ccc(CCNC(=O)c2cnc(Cl)c(Cl)c2)cc1 | 11.2%
41 | CCN(CCn1cccn1)C(=O)c1cc(COc2cccc3cccnc23)on1 | 15.1%
42 | N/C(=N\O)c1cn(Cc2ccccc2Cl)c2ccccc12 | -5.92%
43 | O=C(COc1ccc2c3c(c(=O)oc2c1)CCC3)N1C[C@H]2C[C@@H](C1)c1cccc(=O)n1C2 | -13.1%
44 | CC(=O)c1c(C(=O)O)[nH]c(C(=O)O)c1C | 12.9%

Row | Structure (SMILES) | hERG current change (%, negative = inhibition) at 10uM
45 | O=C(COc1ccccc1Cl)Nc1ccc(CN2CCCCC2)cc1 | -33.7%
46 | CCOC(=O)c1cnn2c(C(F)(F)F)cc(-c3ccco3)nc12 | -9.64%
47 | COC(=O)c1ccc(Nc2nc3ccc(C)cc3n3cnnc23)cc1 | 9.32%
48 | c1ccc(Cn2nnc3c(NCc4ccc5c(c4)OCO5)ncnc32)cc1 | -6.92%
49 | Cc1ccc(N2CC(=O)N(NC(=O)CN3CCN(c4ccccc4)CC3)CC2=O)cc1 | 18.3%
50 | O=C(C1CC1)N1CCc2cc(S(=O)(=O)NCc3ccccc3)ccc21 | 12.3%
51 | C/C(=N\NC(=O)c1nc2ccccn2c1C)c1cc2ccccc2o1 | -63%
52 | CC(C)c1ccc(NC(=O)N(CCc2nc3ccccc3[nH]2)C2CCCC2)cc1 | -8.09%
53 | Cc1cc(C)n2nc(C(=O)N/N=C/c3cn(C)nc3C)nc2n1 | 20.3%
54 | CCn1c(SC)nnc1C1CCN(S(=O)(=O)c2ccc(OC)cc2)CC1 | -4.3%
55 | Cc1cccc(C(=O)NC(C)c2ccc(-n3ccnc3)cc2)c1C (centres unmarked) | -42.2%
56 | Cc1ccnc(NC(=O)Cc2ccc(F)cc2)n1 | -3.31%
57 | O=C(Nc1ccc2nc(-c3cccs3)[nH]c2c1)c1ccco1 | -8.17%
58 | COc1cccc(Nc2nc3ccccc3nc2NS(=O)(=O)c2ccc(NC(C)=O)cc2)c1 | 24.3%
59 | COc1cccc(N(C(=O)c2snc(C(N)=O)c2N)C(C(=O)NCC2CCCO2)c2ccc3ncccc3c2)c1 (centres unmarked) | -16.8%
60 | CCOC(=O)/C=C/C(=O)OCc1csc(CC(=O)Nc2ccccc2C)n1 | -1.99%
61 | COc1ccc(C(=O)Nc2ccc3[nH]ncc3c2)cc1 | 11.9%
62 | COc1ccc(C2C(C(N)=O)=C(C)Nc3ncnn32)cc1 (centres unmarked) | -4.65%
63 | COc1ccc(OCC(O)CN(CC(O)COc2ccc(OC)cc2)c2cccc(O)c2)cc1 (centres unmarked) | 2.41%
64 | O=C(NCc1cccnc1)c1cc(Sc2ccccc2Cl)nc2ccccc12 | -5.45%
65 | Cc1nc(-c2ccc(NC(=O)CC(C)C)cc2)cs1.Cl | 7.49%
66 | CC(C(=O)Nc1ccc(Cl)cc1Cl)N1C(=O)NC2(CCCC2)C1=O (centres unmarked) | -3.64%

Row | Structure (SMILES) | hERG current change (%, negative = inhibition) at 10uM
67 | CCCNC(=S)N1CCC(C(=O)c2ccc(F)cc2)CC1 | -8.84%
68 | COc1ccc(-c2nn(-c3ccccc3)cc2C(=O)O)cc1 | 19.2%
69 | CCCCC(=O)NC(=S)NNC(=O)CC | 12.3%
70 | Cc1cccc(NC(=O)[C@H](NC(=O)[C@@H]2Cc3ccccc3CN2)c2ccccc2)c1 | -54.4%
71 | CCO[C@@H]1OC(C(=O)O)=C[C@H](C)[C@H]1CCCO | 20.7%
72 | CC(NC(=O)c1ccccc1Br)c1nnc(SCc2ccc([N+](=O)[O-])cc2)n1C (centres unmarked) | -28.4%
73 | Cn1nc(C(F)(F)F)c(C(=O)Nc2ccc(C(F)(F)F)cc2)c1Cl | -8.92%
74 | CCN(CC)c1nc(Nc2ccc([N+](=O)[O-])cc2)nc(N(CC)CC)n1 | 11.1%
75 | CC(C)NC(=O)COC(=O)c1ccc(S(=O)(=O)N2CCCC2)cc1 | 21.1%
76 | CCOC(=O)Cn1c(CN2CC(C)OC(C)C2)nc2c1c(=O)n(C)c(=O)n2C (centres unmarked) | 22.2%
77 | Cc1ccc(NC(=O)c2cc(NC(=O)CCCC(=O)O)ccc2Cl)cc1Cl | 21.3%
78 | Cc1ccc(C(=O)Nc2nc(C(C)(C)C)cs2)s1 | -42.4%
79 | COc1cc(OC)cc(-c2c(-c3ccc(F)cc3)c3cc(-c4ccc5[nH]ccc5c4)ccc3n2C)c1 | 9.57%
80 | CC(=O)Nc1ccc(-c2csc(NCc3ccco3)n2)cc1 | 3.3%
81 | CCOc1ccccc1C(=O)NCC(=O)N1CCN(Cc2ccc3c(c2)OCO3)CC1 | -17.3%
82 | CC(=O)c1c(C(C)=O)c(C)n(Cc2ccc(Cl)cc2)c1C | -14.5%
83 | CCOc1cccc(C2C(C(=O)c3ccc(C)o3)=C(O)C(=O)N2Cc2ccncc2)c1 (centres unmarked) | 9.8%
84 | O=C(NCc1ccccc1)C1CCN(c2nc(-c3ccccc3)nc3c2CCC3)CC1 | -24.3%
85 | CCCCN(CCCC)CCCNC(=O)c1ccc2nc(-c3ccccc3NC(C)=O)c(=O)[nH]c2c1 | 2.39%
86 | CCCCCCC1CC(C)(C(=O)C[NH2+]c2nncs2)OC1=O.[Br-] (centres unmarked) | -66.3%
